# Source: publication PMC11889217 (Nature Communications, 2025)
# Target: the molecule itself
# Experiment: cryo-EM structure
protein,measurement,value
"apoGAD65 (N-terminally truncated glutamate decarboxylase 65, […], purified without added PLP) (enzyme) not shown",stoichiometry N,2
